Assay results published in the supplement of paper PMC7238544.
Counter-ions that a name gives are not always drawn. ± gives the standard deviation of the averaged measurements. This is one part of the list.

What was measured:
Conditions in all cases: priming compound concentration 100 µM
[1] = system: hAMSC donor 1; test: Hoechst total cell count ratio vs vehicle control; higher = more cells (less toxicity)
[2] = system: hAMSC donor 2; test: as above
[3] = system: hAMSC donor 1; test: transgenic luciferase activity (RLU/mg protein) fold change vs vehicle control (ratio); higher = more transgene expression
[4] = system: hAMSC donor 2; test: as above
[5] = system: hAMSC donor 1; test: transfection efficiency (EGFP+ cells / Hoechst count) fold change vs vehicle control (ratio); hAMSC are human adipose-derived mesenchymal stem cells given an EGFP-luciferase plasmid by lipofection; higher = enhanced transfection
[6] = system: hAMSC donor 2; test: as above
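Throughout, for Hoechst total cell count ratio vs vehicle control: compound added 30 min before Lipofectamine 3000 lipoplex delivery, triplicate-well means expressed against DMSO vehicle control wells of the same 96-well plate.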
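Throughout, for transfection efficiency (EGFP+ cells / Hoechst count) fold change vs vehicle control: compounds added 30 min before Lipofectamine 3000 lipoplex transfection, triplicate means relative to DMSO vehicle wells on the same plate, luciferase RLU normalized to BCA total protein.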
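Throughout, for transgenic luciferase activity (RLU/mg protein) fold change vs vehicle control: compounds in DMSO added 30 min before Lipofectamine 3000 transfection of pEGFP-Luc in 96-well plates, values are means of triplicate wells over DMSO vehicle wells on the same plate.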

| SMILES | Hoechst total cell count ratio [1] | Hoechst total cell count ratio [2] | transgenic luciferase activity [3] | transgenic luciferase activity [4] | transfection efficiency [5] | transfection efficiency [6] |
| --- | --- | --- | --- | --- | --- | --- |
| Nc1ccn([C@@H]2O[C@H](CO)[C@@H](O)[C@@H]2O)c(=O)n1 [Cytarabine] | 1.03 ± 0.076 | 1.37 ± 0.37 | 1.02 ± 0.39 | 0.72 ± 0.28 | 1.55 ± 0.68 | 0.833 ± 0.27 |
| CCc1c(C)[nH]c2c1C(=O)C(CN1CCOCC1)CC2 (stereo not drawn) [Molindone hydrochloride] | 1.48 ± 0.054 | 1.08 ± 0.12 | 1.32 ± 0.68 | 0.756 ± 0.26 | 1.33 ± 0.16 | 1.42 ± 0.2 |
| COc1cc(Cc2cnc(N)nc2N)cc(OC)c1OC [Trimethoprim] | 1.16 ± 0.089 | 1.69 ± 0.23 | 0.747 ± 0.4 | 3.09 ± 0.51 | 1.16 ± 0.072 | 1.17 ± 0.13 |
| CC1COc2c(N3CCN(C)CC3)c(F)cc3c(=O)c(C(=O)O)cn1c23 (stereo not drawn) [Ofloxacin] | 1.05 ± 0.1 | 1.77 ± 0.085 | 0.951 ± 0.18 | 0.734 ± 0.14 | 1.02 ± 0.18 | 0.811 ± 0.16 |
| CCN(Cc1ccncc1)C(=O)C(CO)c1ccccc1 (stereo not drawn) [Tropicamide] | 1.21 ± 0.076 | 1.76 ± 0.16 | 1.53 ± 1.4 | 0.528 ± 0.027 | 1.35 ± 0.42 | 0.848 ± 0.18 |
| CC(=O)N[C@H]1[C@H]([C@H](O)[C@H](O)CO)OC(C(=O)O)=C[C@@H]1NC(=N)N [Zanamivir hydrate] | 1.26 ± 0.2 | 1.76 ± 0.21 | 0.918 ± 0.57 | 0.558 ± 0.0061 | 0.935 ± 0.14 | 0.681 ± 0.13 |
| CN1CCN(C2=Nc3ccccc3Oc3ccc(Cl)cc32)CC1 [Loxapine succinate] | 0.937 ± 0.033 | 1.56 ± 0.03 | 0.556 ± 0.036 | 0.267 ± 0.06 | 1.1 ± 0.21 | 0.63 ± 0.031 |
| C[C@]12CCC(=O)C=C1CC[C@@H]1[C@@H]2CC[C@@]2(C)[C@H]1CC[C@]2(O)C(=O)CO [11-Deoxycortisol] | 1.8 ± 0.16 | 0.922 ± 0.32 | 0.73 ± 0.11 | 0.292 ± 0.049 | 1.18 ± 0.15 | 1.17 ± 0.17 |
| N[C@@H]1CONC1=O [D-Cycloserine] | 1.14 ± 0.12 | 1.23 ± 0.12 | 0.802 ± 0.17 | 0.646 ± 0.18 | 1.37 ± 0.16 | 0.859 ± 0.041 |
| CC(=O)OCC(=O)[C@@]1(O)CC[C@H]2[C@@H]3CCC4=CC(=O)C=C[C@]4(C)[C@H]3[C@@H](O)C[C@@]21C [Prednisolone acetate] | 1.57 ± 0.25 | 1.87 ± 0.13 | 3.17 ± 1.9 | 0.593 ± 0.19 | 1.62 ± 0.36 | 1.32 ± 0.14 |
| CCOC(=O)OC(C)OC1=C(C(=O)Nc2ccccn2)N(C)S(=O)(=O)c2ccccc21 (stereo not drawn) [Ampiroxicam] | 1.48 ± 0.26 | 1.15 ± 0.082 | 0.836 ± 0.12 | 0.577 ± 0.081 | 1.16 ± 0.16 | 0.543 ± 0.0058 |
| CC(=O)NS(=O)(=O)c1ccc(N)cc1 [Sulfacetamide] | 0.993 ± 0.1 | 1.01 ± 0.19 | 1.13 ± 0.24 | 0.67 ± 0.072 | 1.48 ± 0.018 | 1.99 ± 0.43 |
| COc1ccc(Cl)cc1C(=O)NCCc1ccc(S(=O)(=O)NC(=O)NC2CCCCC2)cc1 [Glyburide] | 1.8 ± 0.27 | 1.59 ± 0.27 | 3.59 ± 1.8 | 0.54 ± 0.13 | 1.68 ± 0.42 | 1.38 ± 0.28 |
| Nc1nc(=O)[nH]cc1F [Flucytosine] | 1.48 ± 0.12 | 1.29 ± 0.29 | 1.32 ± 0.69 | 0.782 ± 0.15 | 0.774 ± 0.11 | 1.08 ± 0.23 |
| CCN1CCN(C(=O)N[C@@H](C(=O)N[C@@H]2C(=O)N3[C@@H]2SC(C)(C)[C@@H]3C(=O)O)c2ccccc2)C(=O)C1=O [Piperacillin sodium] | 1.18 ± 0.16 | 1.55 ± 0.081 | 0.547 ± 0.47 | 0.797 ± 0.19 | 1.05 ± 0.24 | 0.778 ± 0.16 |
| CC(C[N+](C)(C)C)OC(N)=O (stereo not drawn) [Bethanechol chloride] | 1.24 ± 0.093 | 1.55 ± 0.19 | 0.709 ± 0.39 | 0.615 ± 0.049 | 0.888 ± 0.3 | 0.89 ± 0.059 |
| COc1ccc2c3c1O[C@H]1C[C@@H](O)C=C[C@@]31CCN(C)C2 [Galanthamine hydrobromide] | 1.47 ± 0.25 | 1 ± 0.1 | 0.0845 ± 0.047 | 0.53 ± 0.19 | 0.443 ± 0.12 | 0.573 ± 0.13 |
| C=C1/C(=C\C=C2/CCC[C@]3(C)[C@@H]([C@H](C)/C=C/[C@@H](O)C4CC4)CC[C@@H]23)C[C@@H](O)C[C@@H]1O [Calcipotriol] | 1.51 ± 0.12 | 1.14 ± 0.07 | 1.1 ± 0.55 | 1.54 ± 0.7 | 0.412 ± 0.14 | 0.798 ± 0.5 |
| O=C1Nc2ccc(Cl)cc2[C@@](C#CC2CC2)(C(F)(F)F)O1 [Efavirenz] | 0.195 ± 0.15 | 0.0943 ± 0.035 | 0.00287 ± 0.0024 | 0.000168 ± 2.2e-05 | 0.55 ± 0.48 | 0.767 ± 0.82 |
| CS(=O)(=O)c1ccc(-c2cc(Br)sc2-c2ccc(F)cc2)cc1 | 1.38 ± 0.35 | 0.885 ± 0.058 | 0.566 ± 0.45 | 0.486 ± 0.05 | 0.812 ± 0.073 | 0.525 ± 0.074 |
| Clc1cccc(Cl)c1NC1=NCCN1 [Clonidine hydrochloride] | 1.25 ± 0.076 | 1.05 ± 0.076 | 2.23 ± 0.46 | 1.74 ± 0.61 | 1.63 ± 0.42 | 1.37 ± 0.22 |
| O=c1c(O[C@@H]2O[C@H](CO)[C@H](O)[C@H](O)[C@H]2O)c(-c2ccc(O)c(O)c2)oc2cc(O)cc(O)c12 [Hyperoside] | 1.21 ± 0.18 | 0.842 ± 0.037 | 2.85 ± 1.9 | 0.671 ± 0.068 | 1.39 ± 0.5 | 1.66 ± 0.091 |
| C[C@H](N[C@@H](CCc1ccccc1)C(=O)O)C(=O)N1CCC[C@H]1C(=O)O [Enalaprilat] | 1.8 ± 0.075 | 1.19 ± 0.067 | 1.1 ± 0.52 | 1.01 ± 0.18 | 0.933 ± 0.085 | 0.62 ± 0.076 |
